# Reference: patent EP1214397B1, “METHOD FOR THE SELECTIVE PROTECTION OF PROLIFERATING NORMAL CELLS AND THE SELECTIVE ERADICATION OF TUMOR CELLS HAVING AN INACTIVE P53 PATHWAY” (UNIVERSITA' DEGLI STUDI DI ROMA "LA SAPIENZA", priority 1999, dated 2001)
# Columns and labels:
# [1] = system: mixed culture of C3H10T1/2 and C3H10T1/2v-src/v-myc; assay: Focus-forming assay, mixed culture of normal and tumor cells (Examples 3, 9); conditions: normal cell monolayer reforming after combined treatment with CD (description)
# tumor cells in culture = assay: Dose/response: concentration eradicating proliferating / tumor cells (CBCT); type: cell-based; conditions: within the time of the combined treatment (48 h)
# Procedure: Concerning the concentration of class B compound (CBCT), it is comprised in a range that should be calculated as a function of the CT, the target tumor cell type and the half-life in culture of the administered class B compound.
# In particular, for the trifluorothymidine this concentration is greater than or equal to 40 µM, in particular comprised in the range 10µM - 800 µM, preferably 50 µM; for the cytarabine, this concentration is generally greater than or equal to 40 µM, in particular comprised in the range 40 µM - 600 µM, preferably 40 µM; for the 6-thioguanine, this concentration is generally greater than or equal to 50 µM, in particular a concentration comprised in the range 50 µM - 600 µM, preferably 100 µM.
# In fact, by virtue of the protective action of the class A compound on the normal cells, such concentration may be increased up to 10-20 fold the mentioned minimum concentration thereof.
# [2] = system: C3H10T1/2v-src/v-myc cells; type: cell-based, mouse; conditions: 4µCi/ml tritiated thymidine 5 h after 24 h drug (3000 nM CB, 400 nM CD, 650 nM Latrunculin B, 700 nM Jasplakinolide, 100 nM Condramide); control 505 cpm/µg
# Description: In order to verify a possible interference on 3FT uptake by tumor cells, the compounds mentioned in example 7 have been assayed on C3H10T1/2v-src/v-myc cells, measuring the uptake of tritiated thymidine. It is well known in fact that the uptake mechanism of the latter and that of 3FT (and generally of antimetabolites) are the same (6).
# Cells have been plated in a 24-well plate, with a 5x10^4 cells/well and the assays have been carried out under standard culture conditions, as described in example 1.
# In a first assay 3000 nM CB for 24 h, in a second assay 400 nM CD for 24 h, in a third assays 650 nM Latrunculin B for 24 h, in a fourth assay 700 nM Jasplakinolide for 24 h and in a fifth assay 100 nM Condramide for 24 h, have been administered on the C3H10T1/2v-src/v-myc.
# After said administrations, a 4µCi/ml tritiated Thymidine uptake has been carried out for 5 h for each assay, the above mentioned compounds being still present. Cells have been therefore washed 2x with PBS, extracted with 5% cold trichloroacetic acid and subsequently NaOH-lysed.
# The various samples once additioned with scintillation liquid, have been analyzed in a β-counter. The emission values, normalized for the amount of proteins in each sample (quantified by Lowry method) are expressed in count values for min/microgram protein in column 3. As controls there have been considered: • a first C3H10T1/2v-src/v-myc cell culture let free to proliferate for the overall assay (12 h + 24 h + 5 h) the radioactivity thereof being determined at the β-counter. • a second C3H10T1/2v-src-myc cell culture let free to proliferate for the initial 12 h and for the pharmacological treatment assay (12 h + 24 h), then subjected to the uptake of 4µCi/ml tritiated thymidine for 5 h and subsequently subjected to uptake determination at the β-counter.
SMILES,proliferation restart time [1] [days],minimum concentration for killing at least 90% of the proliferating cells (tumor cells in culture) [µM],"tritiated thymidine uptake, emission values [2] [cpm/µg]"
Nc1nc(Cl)nc2c1ncn2[C@H]1C[C@H](O)[C@@H](CO)O1 [2ClAd],14,80,
C/C1=C\[C@H](C)C[C@H](C)OC(=O)C[C@H](c2ccc(O)cc2)NC(=O)[C@@H](Cc2c(Br)[nH]c3ccccc23)N(C)C(=O)[C@H](C)NC(=O)[C@@H](C)C1 [Jasplakinolide],,,559
C/C1=C/C(=O)O[C@@H]2C[C@@H](CC[C@H](C)/C=C\CC1)O[C@@](O)([C@@H]1CSC(=O)N1)C2 [Latrunculin B],,,283
C=C1[C@@H](C)[C@H]2[C@H](Cc3ccccc3)NC(=O)[C@]23OC(=O)/C=C/[C@H](O)CCC[C@@H](C)C/C=C/[C@H]3[C@@H]1O [cytochalasin B],,,223
